Sequences and labels used below:
B1: glmS ribozyme (parent)
chain: AUAAAAGCGCCAGAACUACAGAAAUGUAGUUGACGAGGAGGAGGUUUAUCGAAUUUUCGGCGGAUGCCUCCAAA

± gives the standard error. Variants at the background level are over-represented here.

What all share (conditions): with glucosamine-6-phosphate
In data set [1] the parent is B1. The data set is described as follows: self-cleavage kobs at 40 uM GlcN6P; higher = faster cleavage; RNA array. Put shortly: (§1)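 Glucosamine-6-phosphate, from 40 μM to 10 mM in HEPES/KCl/Mg(OAc)2 buffer, was flowed over sequenced MiSeq chips carrying barcoded ribozyme variants transcribed in situ by E. coli RNA polymerase. A hybridised Cy3 probe tracked the variants at 37 °C as tiles were imaged over ~14 h. kobs, kcat and KM were obtained by fitting normalised per-tile medians to exponential decays and then applying weighted Michaelis–Menten fits across concentrations.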

The variants in data set [2] derive from B1. The data set is described as follows: self-cleavage kobs at 160 uM GlcN6P; higher = faster cleavage; RNA array. An outline of the steps: as §1
Variants of B1 are the subject of data set [3]. The data set is described as follows: self-cleavage kobs at 640 uM GlcN6P; higher = faster cleavage; RNA array. An outline of the steps: as §1
Data set [4] covers variants of B1. The data set is described as follows: self-cleavage kobs at 2500 uM GlcN6P; higher = faster cleavage; RNA array. An outline of the steps: as §1
Data set [5] covers variants of B1. The data set is described as follows: self-cleavage kobs at 10000 uM GlcN6P; higher = faster cleavage; RNA array. An outline of the steps:
as §1

Take C10U C58G: in the data set with glucosamine-6-phosphate [1], the “self-cleavage kobs at 40 uM GlcN6P” value was < 1e-05 s⁻¹.
The same measure, in the same setting: under C11A C16G U54A C68A stands 6.79e-05 ± 2.4e-05 s⁻¹.
Consider C10G A15G, for which the “self-cleavage kobs at 40 uM GlcN6P” value with glucosamine-6-phosphate [1] was < 1e-05 s⁻¹. The “self-cleavage kobs at 160 uM GlcN6P” value with glucosamine-6-phosphate [2] is < 1e-05 s⁻¹.
In the case of C10G U65G, the “self-cleavage kobs at 40 uM GlcN6P” value with glucosamine-6-phosphate [1] was < 1e-05 s⁻¹. In the data set with glucosamine-6-phosphate [3], the “self-cleavage kobs at 640 uM GlcN6P” value is < 1e-05 s⁻¹. In addition, in the data set with glucosamine-6-phosphate [2], the “self-cleavage kobs at 160 uM GlcN6P” value is < 1e-05 s⁻¹. For the same variant, in the data set with glucosamine-6-phosphate [4], the “self-cleavage kobs at 2500 uM GlcN6P” value was < 1e-05 s⁻¹. Moreover, the “self-cleavage kobs at 10000 uM GlcN6P” value in the data set with glucosamine-6-phosphate [5] is < 1e-05 s⁻¹.
Consider G9U A15U G41A C61G, for which, in the data set with glucosamine-6-phosphate [1], the “self-cleavage kobs at 40 uM GlcN6P” value was < 1e-05 s⁻¹. Besides, in the data set with glucosamine-6-phosphate [5], the “self-cleavage kobs at 10000 uM GlcN6P” value is < 1e-05 s⁻¹.
As to C10U G13C G66U, in the data set with glucosamine-6-phosphate [1], the “self-cleavage kobs at 40 uM GlcN6P” value was < 1e-05 s⁻¹. Further, the “self-cleavage kobs at 640 uM GlcN6P” value with glucosamine-6-phosphate [3] was < 1e-05 s⁻¹. Besides, the “self-cleavage kobs at 10000 uM GlcN6P” value in the data set with glucosamine-6-phosphate [5] was < 1e-05 s⁻¹.
Take G9U G40A U54C G60C U69C: the “self-cleavage kobs at 40 uM GlcN6P” value in the data set with glucosamine-6-phosphate [1] was < 1e-05 s⁻¹. For the same variant, the “self-cleavage kobs at 640 uM GlcN6P” value with glucosamine-6-phosphate [3] is < 1e-05 s⁻¹.
Turning to G9U G63U, the “self-cleavage kobs at 40 uM GlcN6P” value in the data set with glucosamine-6-phosphate [1] was < 1e-05 s⁻¹. Also, the “self-cleavage kobs at 640 uM GlcN6P” value in the data set with glucosamine-6-phosphate [3] was < 1e-05 s⁻¹. Also, the “self-cleavage kobs at 2500 uM GlcN6P” value in the data set with glucosamine-6-phosphate [4] was < 1e-05 s⁻¹. Moreover, the “self-cleavage kobs at 10000 uM GlcN6P” value with glucosamine-6-phosphate [5] was < 1e-05 s⁻¹.
Take C10U G43C C50U C70U: the “self-cleavage kobs at 40 uM GlcN6P” value with glucosamine-6-phosphate [1] was < 1e-05 s⁻¹.
As for C10G C58G, in the data set with glucosamine-6-phosphate [1], the “self-cleavage kobs at 40 uM GlcN6P” value is < 1e-05 s⁻¹. The “self-cleavage kobs at 10000 uM GlcN6P” value in the data set with glucosamine-6-phosphate [5] was < 1e-05 s⁻¹.
On to C10G A53G, for which the “self-cleavage kobs at 40 uM GlcN6P” value with glucosamine-6-phosphate [1] is < 1e-05 s⁻¹. Besides, the “self-cleavage kobs at 160 uM GlcN6P” value with glucosamine-6-phosphate [2] was < 1e-05 s⁻¹.
Consider C10U G35U A39U A48G, for which the “self-cleavage kobs at 40 uM GlcN6P” value with glucosamine-6-phosphate [1] is < 1e-05 s⁻¹. Besides, the “self-cleavage kobs at 640 uM GlcN6P” value with glucosamine-6-phosphate [3] was < 1e-05 s⁻¹. Moreover, the “self-cleavage kobs at 160 uM GlcN6P” value with glucosamine-6-phosphate [2] is < 1e-05 s⁻¹. The “self-cleavage kobs at 2500 uM GlcN6P” value in the data set with glucosamine-6-phosphate [4] is < 1e-05 s⁻¹. The “self-cleavage kobs at 10000 uM GlcN6P” value with glucosamine-6-phosphate [5] is < 1e-05 s⁻¹.
Regarding C10U A15G G40U, in the data set with glucosamine-6-phosphate [1], the “self-cleavage kobs at 40 uM GlcN6P” value is < 1e-05 s⁻¹. The “self-cleavage kobs at 10000 uM GlcN6P” value with glucosamine-6-phosphate [5] is < 1e-05 s⁻¹.
As to C10G G66A, the “self-cleavage kobs at 40 uM GlcN6P” value with glucosamine-6-phosphate [1] is < 1e-05 s⁻¹.
The same measure, in the same setting: to G9U U31G G32C G62A belongs < 1e-05 s⁻¹.
Consider C10G G41U A48U G62A U69C, for which the “self-cleavage kobs at 40 uM GlcN6P” value in the data set with glucosamine-6-phosphate [1] is < 1e-05 s⁻¹. In addition, the “self-cleavage kobs at 640 uM GlcN6P” value with glucosamine-6-phosphate [3] is < 1e-05 s⁻¹. In addition, in the data set with glucosamine-6-phosphate [2], the “self-cleavage kobs at 160 uM GlcN6P” value is < 1e-05 s⁻¹. Also, the “self-cleavage kobs at 2500 uM GlcN6P” value with glucosamine-6-phosphate [4] is < 1e-05 s⁻¹. Besides, in the data set with glucosamine-6-phosphate [5], the “self-cleavage kobs at 10000 uM GlcN6P” value was < 1e-05 s⁻¹.
Regarding C10G A42U C67G, the “self-cleavage kobs at 40 uM GlcN6P” value with glucosamine-6-phosphate [1] was < 1e-05 s⁻¹.
For G9U G29C U30C, the “self-cleavage kobs at 40 uM GlcN6P” value in the data set with glucosamine-6-phosphate [1] is < 1e-05 s⁻¹. Moreover, in the data set with glucosamine-6-phosphate [3], the “self-cleavage kobs at 640 uM GlcN6P” value was < 1e-05 s⁻¹. In the data set with glucosamine-6-phosphate [2], the “self-cleavage kobs at 160 uM GlcN6P” value was < 1e-05 s⁻¹. The “self-cleavage kobs at 2500 uM GlcN6P” value in the data set with glucosamine-6-phosphate [4] is < 1e-05 s⁻¹. Besides, the “self-cleavage kobs at 10000 uM GlcN6P” value with glucosamine-6-phosphate [5] was < 1e-05 s⁻¹.
As to C10U A42G, the “self-cleavage kobs at 40 uM GlcN6P” value in the data set with glucosamine-6-phosphate [1] was < 1e-05 s⁻¹.
C11G A12G U45A U47C: the “self-cleavage kobs at 40 uM GlcN6P” value in the data set with glucosamine-6-phosphate [1] was < 1e-05 s⁻¹.
Regarding C11A G37C, the “self-cleavage kobs at 40 uM GlcN6P” value with glucosamine-6-phosphate [1] is < 1e-05 s⁻¹. Also, in the data set with glucosamine-6-phosphate [3], the “self-cleavage kobs at 640 uM GlcN6P” value is < 1e-05 s⁻¹. Besides, in the data set with glucosamine-6-phosphate [4], the “self-cleavage kobs at 2500 uM GlcN6P” value is < 1e-05 s⁻¹.
Turning to C10U U46C, in the data set with glucosamine-6-phosphate [1], the “self-cleavage kobs at 40 uM GlcN6P” value was < 1e-05 s⁻¹. In addition, the “self-cleavage kobs at 640 uM GlcN6P” value in the data set with glucosamine-6-phosphate [3] was < 1e-05 s⁻¹. Further, in the data set with glucosamine-6-phosphate [2], the “self-cleavage kobs at 160 uM GlcN6P” value is < 1e-05 s⁻¹. Further, in the data set with glucosamine-6-phosphate [4], the “self-cleavage kobs at 2500 uM GlcN6P” value is < 1e-05 s⁻¹.
For the variant C10A U31A U46G U56A C61U, the “self-cleavage kobs at 40 uM GlcN6P” value with glucosamine-6-phosphate [1] was < 1e-05 s⁻¹. Also, the “self-cleavage kobs at 10000 uM GlcN6P” value with glucosamine-6-phosphate [5] is < 1e-05 s⁻¹.
On to C10A U55C U56C, for which the “self-cleavage kobs at 40 uM GlcN6P” value with glucosamine-6-phosphate [1] is < 1e-05 s⁻¹. In addition, in the data set with glucosamine-6-phosphate [5], the “self-cleavage kobs at 10000 uM GlcN6P” value was < 1e-05 s⁻¹.
As for C10A C34U, in the data set with glucosamine-6-phosphate [1], the “self-cleavage kobs at 40 uM GlcN6P” value is < 1e-05 s⁻¹. The “self-cleavage kobs at 640 uM GlcN6P” value with glucosamine-6-phosphate [3] is < 1e-05 s⁻¹. The “self-cleavage kobs at 160 uM GlcN6P” value in the data set with glucosamine-6-phosphate [2] is < 1e-05 s⁻¹.

The values are drawn from the supplement of paper PMC7125110.
